Source: the DeepSol protein solubility set

Assay: soluble on expression in E. coli; label from the status in PepcDB or PDB records

Row | Sequence | soluble on expression in E. coli
1 | MGSDKIHHHHHHAGGHKNLPAKGDLHIPVFENVNVRFSPDTYPDNYNEADGTGVYHLVNGRIILKKITLPEYKRNVSVSLKVTLASNGDRWDKSGSCFVLPKSSAINLLTIARDGMKFPSVDSLKLEKMVGIVPGKDYLPTVELMRFMTPFGIGHYSNNNDSLSSKRRPVYIPKWESNVTWQQDITDLYPLLEGEAYVGIYIDTWTSEGYLVNADIDVKESRLACDVLPKRHVEPLMNTVYYMGQSYPDIFARRDVSTDFTVPKGAKNIRLKYIVTGHGGHSGGDEFVQKRNIISVDGKEVLNFIPWRDDCASFRRFNPATGVWLIKRLASYIGEKGYTEKEVEEPLASSDLSRSNWCPGSDVVPEEAVIGTLAPGKHTFTVSIPEAQAVDGNKLNHWLVSAYLVWEE | not soluble
2 | MKDIDTLISNNALWSKMLVEEDPGFFEKLAQAQKPRFLWIGCSDSRVPAERLTGLEPGELFVHRNVANLVIHTDLNCLSVVQYAVDVLEVEHIIICGHSGCGGIKAAVENPELGLINNWLLHIRDIWLKHSSLLGKMPEEQRLDALYELNVMEQVYNLGHSTIMQSAWKRGQNVTIHGWAYSINDGLLRDLDVTATNRETLENGYHKGISALSLKYIPHQ | not soluble
3 | MRLIPLKAAAQVGKWAAAHIVKRINEFQPTAERPFVLGLPTGGTPLATYKALIEMHKAGEVSFKHVVTFNMDEYVGLAADHPESYRSFMYNNFFNHIDIQEENINLLNGNTDDHEAECKRYEDKIKSYGKINLFMGGVGNDGHIAFNEPASSLSSRTRIKTLTEDTRIANSRFFDGDINQVPKYALTIGVGTLLDAQEIMILVTGHNKALALQAAVEGSVNHLWTVSALQLHPKAVIVCDEPSTQELKVKTVKYFTELEAKNIVGF | soluble
4 | MSALKKSFIKRKLAKKQKQNRPMPQWVRMKTGNTMKYNAKRRHWRRTKLKL | soluble
5 | MTKLKCKSLRGEKKDALQKKLDEQKTELATLRVSKVTGGAASKLSKIRVVRKNIARLLTVINQTQKQELRKFYADHKYKPIDLRLKKTRAIRRRLTAHELSLRSAKQQAKSRNQAVRKFAVKA | soluble
